Data on 102 molecules can be found in article PMC6919601, “Identification of Plasmodium dipeptidyl aminopeptidase allosteric inhibitors by high throughput screening” (PLoS ONE, 2019).

Molecules are shown by their SMILES. Hit rate of the full screen: of about 110,000 compounds, about 230 (0.21%) showed an effect of 50% or more. Some of the results follow.
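Also: 30 min substrate incubation versus DMSO and 10 µM JCP410 controls.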

Chain of DPAP1 (Q8IIJ9 whole entry, looked up): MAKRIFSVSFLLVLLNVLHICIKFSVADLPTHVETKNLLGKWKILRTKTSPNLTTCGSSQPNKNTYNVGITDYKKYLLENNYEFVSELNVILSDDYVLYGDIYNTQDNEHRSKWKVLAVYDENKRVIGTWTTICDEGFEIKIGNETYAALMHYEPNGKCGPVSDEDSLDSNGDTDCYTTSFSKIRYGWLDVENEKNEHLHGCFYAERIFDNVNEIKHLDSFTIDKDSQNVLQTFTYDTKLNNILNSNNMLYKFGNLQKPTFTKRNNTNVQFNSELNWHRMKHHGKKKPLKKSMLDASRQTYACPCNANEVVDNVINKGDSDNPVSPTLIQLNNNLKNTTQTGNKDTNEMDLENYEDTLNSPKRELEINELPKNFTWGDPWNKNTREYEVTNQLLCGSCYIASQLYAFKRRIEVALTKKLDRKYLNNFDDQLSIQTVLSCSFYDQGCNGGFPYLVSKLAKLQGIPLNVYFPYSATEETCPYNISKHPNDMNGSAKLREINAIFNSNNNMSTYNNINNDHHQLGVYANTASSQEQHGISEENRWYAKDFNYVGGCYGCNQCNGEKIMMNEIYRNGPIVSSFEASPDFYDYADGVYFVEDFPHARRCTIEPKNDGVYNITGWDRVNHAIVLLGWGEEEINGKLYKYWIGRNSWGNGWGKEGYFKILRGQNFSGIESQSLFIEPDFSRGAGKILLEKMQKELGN

The experiment has as its target DPAP1 (Plasmodium falciparum, UniProt Q8IIJ9). Briefly: primary screen, percent inhibition; read by cleavage of a fluorogenic dipeptide substrate; higher = more effect of the substance. Also on record: species or system P. falciparum D10 trophozoite lysates; single well.
On to `CC(C)ONC(c1ccccc1)(c1ccccc1)c1ccccc1`, for which the “% Inhibition @ 10 uM” value was -1.18%.
Turning to `CSCCC(NC(=O)/C(=C/c1ccccc1)NC(=O)c1ccc(Br)o1)C(=O)O` (stereo not drawn), the “% Inhibition @ 10 uM” value is reported as -4.74%.
To `Cn1ncc2c(c1=O)Sc1c(cnn(C)c1=O)S2` belongs 2.41%; to `Cc1ccc(-c2nnc3sc(-c4ccccn4)nn23)cc1`, 4.47%; to `CCC(CN(C)Cc1ccccc1)NS(=O)(=O)c1csc(C(N)=O)c1` (stereo not drawn), -2.13%.
The result for `COc1ccc(/C=C2\CCC/C(=C\c3ccc(OC)cc3)C2=O)cc1` reads -2.77%.
To `COc1ccccc1Oc1nc2c(C)cccn2c(=O)c1/C=C(\C#N)C(=O)N1CCOCC1` belongs 0.315%.
`O=C(O)CCC(=O)N1N=C(c2ccccc2)CC1c1cccs1` (stereo not drawn): the “% Inhibition @ 10 uM” value was -8.05%.
The result for `CC1=CC2=NC(C(F)(F)F)(C(F)(F)F)N=C(c3ccccc3)N2C=C1` reads -1.72%; that for `Cc1occc1C(=O)Nc1sc(C)c(C)c1C(N)=O`, -1.42%.
To `CC(C)CC(N)C(=O)Nc1ccc2ccccc2c1` (stereo not drawn) belongs -5.9%; to `COc1ccc(CCN2C(=O)c3ccccc3C(C(=O)O)C2c2ccccc2O)cc1OC` (stereo not drawn), -1.19%.
As to `COc1ccc(-c2cc(C(F)(F)F)nc(SCC(=O)N3CCN(C)CC3)n2)cc1`, the “% Inhibition @ 10 uM” value was -2.75%.
The result for `Cc1ccc(C(=O)Nc2ccc3ccccc3c2)o1` reads -2.21%; that for `Cc1cc(C)cc(NCc2cccnc2)c1`, -8.04%.
Regarding `Cc1c2cnn(CC(=O)NC3CCCc4ccccc43)c(=O)c2c(C)n1Cc1ccc(Cl)cc1` (stereo not drawn), the “% Inhibition @ 10 uM” value was -2.17%.
The result for `CCCN1CCC(N2CCCCC2CO)CC1` (stereo not drawn) reads -5.11%; that for `CCOC(=O)C1=C(CN2CCC(C(N)=O)CC2)NC(=O)NC1c1cccc(OC)c1OC` (stereo not drawn), -3.33%; that for `CC(C)CNC(=O)c1cc2nc(C3CC3)cc(C(F)(F)F)n2n1`, -12.1%.
To `CCOc1cc(CN(C)CCN(C)C)ccc1OC` belongs -2.6%; to `COc1ccc(-c2ccc(O)nn2)cc1F`, 0.635%; to `CCc1nn(C(CC)C(=O)NC2CCCC2)c(=O)c2cc3occc3n12` (stereo not drawn), -2%.
To `O=C(Nc1ccc(O)c(-c2nc3ccccc3[nH]2)c1)C1CCCCC1` belongs -18.6%.
Regarding `COc1cc(/C=C2/NC(=O)N(CC(=O)Nc3ccc(C)cc3)C2=O)cc2c1OCO2`, the “% Inhibition @ 10 uM” value was -5.92%.
To `Cc1ccc(NC(=O)c2cccnc2Cl)cc1` belongs -2.8%.
As to `CC(=O)Nc1ccc(N2C(=O)CSC23C(=O)Nc2ccccc23)cc1` (stereo not drawn), the “% Inhibition @ 10 uM” value was -3.04%.
To `Cc1ccc(/C=C2/NC(=O)N(Cc3ccc(Cl)cc3)C2=O)cc1` belongs -7.09%; to `CCN(CCN(C)C)Cc1ccc(F)cc1F`, -4.04%.
The result for `Cc1ccccc1CN(c1ccc(C(=O)N2CCC(C(N)=O)CC2)cc1)S(C)(=O)=O` reads -6.66%; that for `CCOC(=O)c1cnn2c1NC(c1ccc(C(C)C)cc1)CC2C(F)(F)F` (stereo not drawn), 3.35%.
Take `COC(=O)c1c(N)sc2c1CCc1ccccc1-2`: the “% Inhibition @ 10 uM” value amounted to 3.94%.
On to `CCc1ccc(-c2cn3ccc(C)cc3n2)cc1`, for which the “% Inhibition @ 10 uM” value is 1.27%.
As to `COc1ccc(C(=O)Nc2nc(-c3nnn(-c4cccc(Cl)c4C)c3C)ns2)cc1`, the “% Inhibition @ 10 uM” value is listed as -4.36%.
The result for `O=C(O)c1ccc(S(=O)(=O)NC2CCCc3ccccc32)cc1` (stereo not drawn) reads 5.81%; that for `COc1cccc(-c2cc(C(F)(F)F)n3ncc(C(=O)N4CCc5ccccc5C4)c3n2)c1`, -2.75%; that for `CC1(C)Nc2ccccc2N(CCC(=O)N2CCOCC2)C1=O`, 3.93%.
Regarding `O=C(NC1CCC(NC(=O)c2ccncc2)CC1)c1ccncc1` (stereo not drawn), the “% Inhibition @ 10 uM” value came to 0.986%.
With `CCOC(=O)Nc1cccc(OC(=O)Nc2ccccc2)c1`, the “% Inhibition @ 10 uM” value worked out at 4.89%.
The result for `O=C1CCC(=O)N1CN1CCC(Cc2ccccc2)CC1` reads -3.52%; that for `CCC1CCCCN1C(=O)CSc1nnc(CNC(=O)c2cccs2)o1` (stereo not drawn), -1.58%; that for `C=CCNc1nc(C)nc2c1sc1nc3c(cc12)COC(C)(C)C3`, -1.66%.
On to `CC1CCc2c(C(=O)NCCCN3C(C)CCCC3C)csc2C1` (stereo not drawn), for which the “% Inhibition @ 10 uM” value stood at 1.93%.
As for `Cc1ccc(NC(=O)CN(Cc2ccccc2)S(C)(=O)=O)cc1C`, the “% Inhibition @ 10 uM” value is 0.231%.
The result for `Cc1ccc2c(c1)c1c(n2CC2COC(C)(C)O2)C(=O)CCC1` (stereo not drawn) reads -4.94%.
To `O=C(CSc1nc2ccccc2c(=O)n1CCc1ccccc1)NCc1ccco1` belongs 1.03%; to `Cc1cc(NC(=O)c2cc(C)on2)no1`, -0.591%; to `COCc1cc(C2SCC(=O)Nc3c2c(C)nn3-c2ccccc2)ccc1OC` (stereo not drawn), -3.63%.
The result for `O=C(NCC(=O)N1CCCC1C(=O)O)OC1CCCCC1` (stereo not drawn) reads 4.64%; that for `CCCc1nc2c3ccccc3nc(NCCc3ccc(S(N)(=O)=O)cc3)n2n1`, -2.42%; that for `Cc1cccc(Cn2c(=O)n(Cc3ccco3)c(=O)c3sc4ccccc4c32)c1`, -8.42%.
Take `Nc1cccc(C(=O)N2N=C(C(F)(F)F)CC2(O)c2ccc(F)cc2)c1` (stereo not drawn): the “% Inhibition @ 10 uM” value is given as -2.87%.
To `CCN(CC)CCCOC(=O)c1ccc(O)c(O)c1` belongs -1.54%.
The result for `COc1ccc2c(CNCCc3ccco3)c(C(=O)O)n(Cc3ccccc3C)c2c1` reads -3.46%.
The result for `N#CC1=C(N)Oc2[nH]nc(-c3cccs3)c2C1c1ccc2c(c1)OCO2` (stereo not drawn) reads -6.35%; that for `CCn1c(=O)c2sccc2n2c(CCCC(=O)N3CCN(c4ncccn4)CC3)nnc12`, -2.44%; that for `COc1cc(Br)cc2c1Oc1nc(-c3cccc(O)c3)nc(O)c1C2`, 3.92%.
In the case of `COc1c2c(nc3occc13)C(CC=C(C)C)(OC)C(O)CC2` (stereo not drawn), the “% Inhibition @ 10 uM” value is 0.501%.
To `COc1cc(C2C(C#N)=C(N)Oc3[nH]nc(-c4cccc5ccccc45)c32)cc(OC)c1OC` (stereo not drawn) belongs 1.03%; to `O=C(Cn1c[n+](CC(=O)c2ccc(Br)cc2)cn1)c1ccc(Br)cc1`, 5.19%; to `Cc1nc2c(CN(C)C)c(O)ccc2[nH]1`, 3.65%.
The result for `COc1cccc(OC)c1C(=O)Nc1c(C(=O)NC(C)(C)C)oc2ccccc12` reads 1.75%; that for `CC1CCCC(C)N1C(=O)c1ccc(C(=O)N2C(C)CCCC2C)nc1` (stereo not drawn), -7.89%.
The result for `COc1ccc(CC(=O)Nc2ccc(C(C)=O)cc2)cc1` reads -4.66%; that for `CCCN1CCN(c2ncnc3c2nc2n3CCCCC2)CC1`, 0.233%.
Take `C=CCN1C(=O)S/C(=C\c2cccc(OCC)c2O)C1=O`: the “% Inhibition @ 10 uM” value is listed as -4.97%.
The result for `COc1cc(C2NCCc3c2[nH]c2ccccc32)ccc1OC(C)C` (stereo not drawn) reads 1.02%; that for `COc1ccc2oc(=O)c(C(=O)Nc3nc(C45CC6CC(CC(C6)C4)C5)cs3)cc2c1`, -2.44%; that for `O=C(O)c1cc(S(=O)(=O)Nc2ccccc2)c(Cl)cc1Cl`, -17%.
To `CCCc1cc(O)n2nc(SCc3ccccc3)nc2n1` belongs 0.627%.
As for `Cc1cccc(C)c1NC(=O)c1cccs1`, the “% Inhibition @ 10 uM” value was 1.96%.
To `COCCN(CC(O)Cn1c2ccccc2c2ccccc21)C(=O)c1ccccc1` (stereo not drawn) belongs -1.33%.
Consider `Cn1c(=O)c2c(nc(CN3CCCCC3)n2CC(=O)c2ccccc2)n(C)c1=O`, for which the “% Inhibition @ 10 uM” value is -6.31%.
The result for `CC1CCCCC1NC(=O)/C=C/C(=O)O` (stereo not drawn) reads -1.99%; that for `CCCCC(NC(=O)OCc1ccccc1)C(=O)NC(Cc1ccc(OC)cc1)C(=O)CO` (stereo not drawn), -2.35%; that for `CCOC(=O)c1cnc(N2CCCCC2)nc1C`, -4.69%.
The result for `COc1ccc(NC(=O)COc2ccc(Cl)cc2Cl)c(OC)c1` reads -4.82%.
The result for `COc1ccc(C2C=C(c3ccc(C)cc3)Nc3nc4ccccc4n32)cc1OC` (stereo not drawn) reads 1.73%; that for `CCOC(=O)C1=C(C)N=c2s/c(=C\c3cccs3)c(=O)n2C1c1ccc(Cl)cc1` (stereo not drawn), 3.61%.
Take `c1ccc(-c2cn3ncsc3n2)cc1`: the “% Inhibition @ 10 uM” value was -2.71%.
The result for `COc1ccccc1/C=C1\C(=O)NC(=O)N(c2c(C)cc(C)cc2C)C1=O` reads -6.18%; that for `CC(=O)N[C@H]1[C@H](Oc2cc(C)ccc2C(C)C)O[C@H](CO)[C@@H](O)[C@@H]1O`, -0.0235%; that for `O=C(/C=C/c1ccco1)c1cccs1`, 3.85%.
The result for `COc1ccc2nc(-c3ccccc3)cc(OC)c2c1` reads 5.42%.
To `NCCc1c(-c2ccccc2)n(-c2ccccc2)c2ccccc12` belongs -0.128%; to `COC(=O)C1=CN(C)C=C(C(=O)OC)C1c1cc(Br)ccc1OC`, -1.46%.
In the case of `NC(=O)COc1ccc(C23CC4CC(CC(C4)C2)C3)cc1`, the “% Inhibition @ 10 uM” value turned out to be 0.962%.
To `CC(C)Cn1c(CCNC(=O)C2CCCCC2)nc2ccccc21` belongs -3.52%.
The result for `CC(=O)Nc1ccc(-c2cn3ccccc3n2)cc1` reads -0.833%; that for `CCOc1ccccc1-c1nn2c(-c3ccc(C)cc3)nnc2s1`, 6.01%.
To `COc1ccc(/N=c2\oc(C)cc(O)c2C(C)=O)cc1` belongs -3.46%; to `COc1ccc(CCNC(=O)[C@H](Cc2ccccc2)N2Cc3ccccc3C2=O)cc1OC`, 2.93%; to `N=C(Cc1cccs1)NOC(=O)COc1ccc(Br)cc1`, 0.343%.
For `COc1ccc(-c2nc(CS(=O)CC(=O)NC3CCC(C)CC3)c(C)o2)cc1OC` (stereo not drawn), the “% Inhibition @ 10 uM” value is -8.65%.
`Cc1cc(NC(=O)COCc2cc(-c3ccc4c(c3)OCO4)on2)no1`: the “% Inhibition @ 10 uM” value is on record as 9.46%.
To `CN(CCO)c1nc2c(c(=O)n(Cc3ccc(Cl)cc3)c(=O)n2C)n1C` belongs 3.69%; to `CCN(CC)CCN(CC)Cc1cccc(Cl)c1`, -1.41%; to `COc1cccc2sc(N(CCCN(C)C)C(=O)c3ccco3)nc12`, 1.76%.
To `CC(CCN1CCC(O)(c2ccc(Br)cc2)CC1)c1ccccc1` (stereo not drawn) belongs -1.21%; to `CCOC(=O)C1CCCN(Cc2cccc(C(F)(F)F)c2)C1` (stereo not drawn), 3.05%.
To `Cc1nn(CCCC(=O)N2CCc3ccccc3C2)c(=O)c2cc3sccc3n12` belongs 4.95%; to `CN(C)c1ccc(C2OC(COc3ccccc3)CN(C(=O)c3ccccc3)O2)cc1` (stereo not drawn), -6.7%; to `Cc1ccc(CSc2nc3nccnc3c(=O)n2CCC(C)C)cc1`, -3.73%.
